Measurements taken from paper PMC9911399, “Two distinct binding modes provide the RNA-binding protein RbFox with extraordinary sequence specificity”.
Where a chain is given by its changes, count along the chain named. The list shows a part of the results.

B1: CCGAUAU (DNA:RNA)
RNA: GGGAGACCGGAAUUCAGAUUGUCCCCGAUAUUUAAAUCCCGUCGUAGCCACCA
DNA 1: CAATCTGAATTCCGGTCTCCC
DNA 2: TGGTGGCTACGACGGGATT
B2: GGAAUCU (DNA:RNA)
RNA: B1 RNA with C25G, C26G, G27A, A30C
DNA 1: CAATCTGAATTCCGGTCTCCC
DNA 2: TGGTGGCTACGACGGGATT
B3: GUUGGAC (DNA:RNA)
RNA: B1 RNA with C25G, C26U, G27U, A28G, U29G, U31C
DNA 1: CAATCTGAATTCCGGTCTCCC
DNA 2: TGGTGGCTACGACGGGATT
B4: UCAUGAA (DNA:RNA)
RNA: B1 RNA with C25U, G27A, A28U, U29G, U31A
DNA 1: CAATCTGAATTCCGGTCTCCC
DNA 2: TGGTGGCTACGACGGGATT
B5: GUCAGUC (DNA:RNA)
RNA: B1 RNA with C25G, C26U, G27C, U29G, A30U, U31C
DNA 1: CAATCTGAATTCCGGTCTCCC
DNA 2: TGGTGGCTACGACGGGATT
B6: CGCGGUC (DNA:RNA)
RNA: B1 RNA with C26G, G27C, A28G, U29G, A30U, U31C
DNA 1: CAATCTGAATTCCGGTCTCCC
DNA 2: TGGTGGCTACGACGGGATT
B7: UUCAGUC (DNA:RNA)
RNA: B1 RNA with C25U, C26U, G27C, U29G, A30U, U31C
DNA 1: CAATCTGAATTCCGGTCTCCC
DNA 2: TGGTGGCTACGACGGGATT
B8: GCAUCCC (DNA:RNA)
RNA: B1 RNA with C25G, G27A, A28U, U29C, A30C, U31C
DNA 1: CAATCTGAATTCCGGTCTCCC
DNA 2: TGGTGGCTACGACGGGATT
B9: UGACAAU (DNA:RNA)
RNA: B1 RNA with C25U, C26G, G27A, A28C, U29A
DNA 1: CAATCTGAATTCCGGTCTCCC
DNA 2: TGGTGGCTACGACGGGATT
B10: CUGAGGU (DNA:RNA)
RNA: B1 RNA with C26U, U29G, A30G
DNA 1: CAATCTGAATTCCGGTCTCCC
DNA 2: TGGTGGCTACGACGGGATT
B11: AUCAGAU (DNA:RNA)
RNA: B1 RNA with C25A, C26U, G27C, U29G
DNA 1: CAATCTGAATTCCGGTCTCCC
DNA 2: TGGTGGCTACGACGGGATT
B12: CUCGACG (DNA:RNA)
RNA: B1 RNA with C26U, G27C, A28G, U29A, A30C, U31G
DNA 1: CAATCTGAATTCCGGTCTCCC
DNA 2: TGGTGGCTACGACGGGATT
B13: UGCAACU (DNA:RNA)
RNA: B1 RNA with C25U, C26G, G27C, U29A, A30C
DNA 1: CAATCTGAATTCCGGTCTCCC
DNA 2: TGGTGGCTACGACGGGATT
B14: CGCUGCU (DNA:RNA)
RNA: B1 RNA with C26G, G27C, A28U, U29G, A30C
DNA 1: CAATCTGAATTCCGGTCTCCC
DNA 2: TGGTGGCTACGACGGGATT
B15: CGUUAGU (DNA:RNA)
RNA: B1 RNA with C26G, G27U, A28U, U29A, A30G
DNA 1: CAATCTGAATTCCGGTCTCCC
DNA 2: TGGTGGCTACGACGGGATT
B16: UGCAUCA (DNA:RNA)
RNA: B1 RNA with C25U, C26G, G27C, A30C, U31A
DNA 1: CAATCTGAATTCCGGTCTCCC
DNA 2: TGGTGGCTACGACGGGATT
B17: GUGGGAC (DNA:RNA)
RNA: B1 RNA with C25G, C26U, A28G, U29G, U31C
DNA 1: CAATCTGAATTCCGGTCTCCC
DNA 2: TGGTGGCTACGACGGGATT
B18: ACACCUG (DNA:RNA)
RNA: B1 RNA with C25A, G27A, A28C, U29C, A30U, U31G
DNA 1: CAATCTGAATTCCGGTCTCCC
DNA 2: TGGTGGCTACGACGGGATT
B19: AUGUCUA (DNA:RNA)
RNA: B1 RNA with C25A, C26U, A28U, U29C, A30U, U31A
DNA 1: CAATCTGAATTCCGGTCTCCC
DNA 2: TGGTGGCTACGACGGGATT
B20: CGAACCC (DNA:RNA)
RNA: B1 RNA with C26G, G27A, U29C, A30C, U31C
DNA 1: CAATCTGAATTCCGGTCTCCC
DNA 2: TGGTGGCTACGACGGGATT

Each binder was assayed against T1, RBFOX1 RRM RbFoxmut (Fox-RRM*) (Homo sapiens, UniProt Q9NWB1 109-208, R118D;E147R;N151S;E152T) (assay: EMSA; HiTS-Eq, 1 nM pool, 10 min; buffer printed only for the single-RNA assays: 10 mM Tris pH 7.5, 150 mM NaCl, 3.4 mM EDTA, 0.001% NP-40, 30 C). Details: tags: His6 N-terminal (pET28a); label: 5' 32P.
T1 sequence: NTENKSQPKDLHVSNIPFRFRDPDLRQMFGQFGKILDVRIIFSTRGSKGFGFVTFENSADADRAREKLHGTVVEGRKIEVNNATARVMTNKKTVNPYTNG
In short: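 Purified RbFox RRM, wild type or mutant, was incubated for 10 min in 50 µL with 1 nM of a 5′-radiolabelled RNA pool carrying 7 randomized nucleotides, whose flanks were annealed to DNA oligonucleotides, over a series of increasing protein concentrations. Unbound RNA was resolved on 8% native PAGE, cut out, reverse-transcribed, barcoded by PCR and sequenced on an Illumina HiSeq 2500. Relative association constants were derived from changes in read counts for each RNA species versus the control reaction and normalised to the cognate motif.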

Binder | binding signal
B1 | 0.101 KA relative to UGCAUGU
B2 | 0.336 KA relative to UGCAUGU
B3 | 0.0564 KA relative to UGCAUGU
B4 | 0.135 KA relative to UGCAUGU
B5 | 0.0719 KA relative to UGCAUGU
B6 | 0.191 KA relative to UGCAUGU
B7 | 0.046 KA relative to UGCAUGU
B8 | 0.142 KA relative to UGCAUGU
B9 | 0.0431 KA relative to UGCAUGU
B10 | 0.115 KA relative to UGCAUGU
B11 | 0.0918 KA relative to UGCAUGU
B12 | 0.117 KA relative to UGCAUGU
B13 | 0.0982 KA relative to UGCAUGU
B14 | 0.103 KA relative to UGCAUGU
B15 | 0.17 KA relative to UGCAUGU
B16 | 0.565 KA relative to UGCAUGU
B17 | 0.0712 KA relative to UGCAUGU
B18 | 0.0842 KA relative to UGCAUGU
B19 | 0.122 KA relative to UGCAUGU
B20 | 0.0695 KA relative to UGCAUGU
